Assay results: PubChem BioAssay AID686971 (National Center for Advancing Translational Sciences (NCATS), 2013)
Among all 360,000 compounds or so, about 7,500 (2.1%) were called active. Inconclusive results, whose numbers are uncertain, are shown with a selection of clear calls. Calls come from the whole dose curve; as a rule, active = well fitted cell-killing curve with a large enough effect; inconclusive = small, poorly fitted or top-dose-only effect, or effect the other way, or another doubt; inactive = no such curve, though single readings can be large or run the other way. No potency is given beside an inconclusive call; the fits are too rough.

Test: qHTS for induction of synthetic lethality in tumor cells producing 2HG: qHTS for the HT-1080-IDH1KD cell line;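 for activity, negative = toxicity: 0% = DMSO wells and -100% = cell-free medium wells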
Conditions: HT-1080 IDH1 knockdown viability, ATP luminescence, 48 h; activity, negative = toxicity: at 46.1 µM (top of the series) unless noted
Procedure, shortened: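 After a 2 h attachment period, IDH1KD HT-1080 cells took pin-transferred compound for 48 h at 37 °C; ATP-based luminescence after 10 min room-temperature reagent incubation reported viability.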
Potency is the fitted concentration of half-maximal effect; tags give direction and shape of the fitted curve.

SMILES	Potency	activity, negative = toxicity
O=c1c(Cc2ccc(Cl)cc2Cl)c(O)ccn1Cc1ccc(Cl)cc1	inconclusive [cytotoxic, single point]	
CCOC(=O)C1(Cc2ccc(Cl)cc2)CCN(Cc2nccn2CC)CC1	inactive	
CCc1ccc(NC(=O)C(=O)NNC(=O)c2cccc(OC)c2)cc1	inconclusive [cytotoxic, single point]	
COc1ccc2nc(NC(=O)c3ccc([N+](=O)[O-])o3)sc2c1	active: 18.4 µM	
c1ccc(-c2nnc3sc(-c4ccncc4)nn23)cc1	inactive	
CCN(CC)C(=O)CC(c1cc(OC)c(OC)c(OC)c1)c1c(OC)cc(OC)c2c(-c3ccccc3)cc(=O)oc12 (stereo unspecified)	inactive	
CCOc1ccc(-c2[nH]ncc2Oc2ccccc2OCC)c(O)c1	inconclusive [cytotoxic, single point]	
Cn1nc(C(C)(C)C)cc1NC(=O)C1(C)CCN1C(=O)c1ccccc1CCc1ccccc1 (stereo unspecified)	inconclusive [cytotoxic, single point]	
C[C@H]1O[C@@H](O[C@H]2[C@@H](O)C[C@H](O[C@H]3[C@@H](O)C[C@H](O[C@H]4CC[C@@]5(C)[C@H](CC[C@@H]6[C@@H]5C[C@@H](O)[C@]5(C)[C@@H](C7=CC(=O)OC7)CC[C@]65O)C4)O[C@@H]3C)O[C@@H]2C)C[C@H](O)[C@@H]1O	active: 0.0366 µM	
Cc1ccc(-c2cnc(C(O)c3cc(F)cc(Cl)c3)[nH]2)cc1 (stereo unspecified)	inconclusive [cytotoxic, single point]	
Cc1cccc(O)c1C	inconclusive [cytotoxic, single point]	
CC1=C(C(=O)Nc2ccccc2)C(c2ccc(Cl)cc2)n2c(s/c(=C/c3cccc(OCC(=O)O)c3)c2=O)=N1 (stereo unspecified)	inconclusive [cytotoxic, single point]	
Cc1ccc(S(=O)(=O)CC(=O)N2CCN(c3cccc(C(F)(F)F)c3)CC2)cc1	inactive	
Cc1ccccc1/C=C\c1nc2ccccc2c(=O)[nH]1	active: 16.4 µM	
COc1ccc(/C=C/C(=O)N(Cc2ccccc2)c2ccccn2)cc1OC	inactive	
COc1ccc2nc(C)cc(SCC(=O)Nc3c(C)cc(C)cc3C)c2c1	inactive	
CN(C)CCNC(=O)/C(=C/c1ccc(-c2ccc(Cl)cc2Cl)o1)NC(=O)c1ccccc1	active: 20.6 µM	
c1ccc(Oc2nc(-c3ccccn3)nc3ccccc23)cc1	inconclusive [cytotoxic, single point]	
CCOC(=O)CSc1cccc2cccnc12	inconclusive [cytotoxic, partial curve]	
Cc1cc(Cl)ccc1C(O)c1ncc(-c2cccc(C(F)(F)F)c2)[nH]1 (stereo unspecified)	inconclusive [cytotoxic, single point]	
COc1ccc(Cc2c(C3CCCCC3)nc3ccc(Cl)cn23)c(C)c1	inactive	
O=C1Nc2ccc(Br)cc2/C1=C/C(=O)c1ccccc1	inconclusive [cytotoxic, single point]	
Cc1ccc2[nH]c3c(=O)n(CC(=O)NCCCN4CCN(c5ccc(F)cc5)CC4)ncc3c2c1	inactive	

SMILES	Potency	activity, negative = toxicity
CCN(CC)c1ccc(/C=N/Nc2nc3ccccc3[nH]2)c(O)c1	active: 6.51 µM	
CCOc1ccc(Nc2nc(N)nc(CCl)n2)cc1	inconclusive [cytotoxic, partial curve, poor fit]	
Cc1onc(-c2ccccc2)c1C(=O)NNC(=S)NC(=O)c1ccc(Cl)cc1Cl	inconclusive [cytotoxic, single point]	
CCOc1ccc2c(C)nc(NC3=NC(C)(C)C=C(C)N3)nc2c1		inconclusive: -32.8% [cytotoxic]
O=C(COc1ccc([N+](=O)[O-])cc1)Nn1cnnc1	inconclusive [rising, partial curve]	
Cc1nc(-c2ccc(Cl)cc2)sc1C(=O)CBr	inactive	
COC(=O)c1[nH]c2cccc(Cl)c2c1NC(=O)CN1CCCCC1C (stereo unspecified)	inconclusive [cytotoxic, single point]	
CC(=O)Nc1ccc(-c2csc(NC(=O)C3=COCCO3)n2)cc1	inactive	
Cc1cc(C)c(NC(=S)NC(NC(=O)c2ccccc2)C(Cl)(Cl)Cl)c(C)c1 (stereo unspecified)	inconclusive [cytotoxic, single point]	
CCc1nc2c(OCc3ccc(C(F)(F)F)cc3)cccn2c1N(C)C(=O)c1ccc(C)cc1	inconclusive [cytotoxic, single point]	
COc1cc2nc(N3CCCN(C)CC3)nc(N(C)C)c2cc1OC	inactive	
COc1cccc(NC(=O)CSc2nnc(CNC(=O)c3ccco3)n2C)c1	inconclusive [cytotoxic, partial curve]	
CCOC(=O)c1c2ccc(OCC(=O)NN)cc2n2ccccc12	inconclusive [cytotoxic, partial curve]	
O=C(Nc1ccccc1)N1CCc2scc[n+]2-c2ccccc21	inactive	
CC(=O)c1ccc(NC(=O)CSc2ccc(-c3ccco3)nn2)cc1	inactive	
Cc1cnc([N+](=O)[O-])n1CCOC(=O)NC(=O)c1ccccc1Cl	inactive	
O=C(Nc1ccccc1)Nc1nnc(Cc2ccc(F)cc2)s1	inconclusive [cytotoxic, single point]	
CCOC(=O)C1=C(NC(=S)NC(=O)c2ccccc2)c2ccccc2CC1C(C)C (stereo unspecified)	inconclusive [cytotoxic, full curve]	
O=c1oc2ccccc2c(Nc2cc3ccccc3cc2O)c1[N+](=O)[O-]	inconclusive [cytotoxic, partial curve]	
CC(C)CC(N)c1csc(NC(=O)Nc2ccccc2C(C)(C)C)n1 (stereo unspecified)	inconclusive [cytotoxic, single point]	
O=C(NNC(=O)c1cc(Cl)nc2ccccc12)c1ccccc1F	inactive	
COC[C@@H]1CCCN1c1ccc2c(c1)O[C@H](COCc1ccccc1)CN([C@@H](C)c1ccccc1)S2(=O)=O	inactive	
CCN(Cc1ccccc1)C(=O)c1cccc(S(=O)(=O)N2CCN(c3ccccc3)CC2)c1	inactive	
